The whole screen tested about 150,000 compounds, of which about 540 (0.36%) showed an effect of 50% or more. This is one part of the list.
Tested on: Plasmodium falciparum
Experiment: Primary screen in NF54 nanoGlo assay, in single point, at 2uM, 72h; a lower Z score goes with more inhibition
Type: functional, Erythrocyte
Settings: timepoint 72 hour

Structure (SMILES) | % Inhibition [%] | Z score
CCOC1CC(N(C)C(=O)C2CC3CCC2C3)C1(C)C (stereo not given) | 0 | 0.02
COc1ccccc1[C@H]1CCN(c2cc3nncn3c(C)n2)C1 | -1 | 0.18
CO[C@H]1COC[C@@H]1NC(=O)c1ccc(CO)cc1 | -13 | 1.51
Cc1csc(C2CN(C(=O)NC3CCc4ccccc43)CCO2)n1 (stereo not given) | -9 | 1.4
COc1ccc(CNC(=O)CCN2C=Cc3cc(OC)c(OC)cc3CC2=O)cc1 | 4 | -0.53
CN(CC(N)=O)c1ccnc(Cc2ccccc2)n1 | -12 | 1.57
CCCc1cc(C(=O)N2C[C@@H]3CC[C@H]2CN(C(C)=O)C3)n(C)n1 | 3 | -0.61
CN(C(=O)C(=Cc1ccc(Cl)cc1)c1ccc(F)cc1)[C@H]1CCS(=O)(=O)C1 | -3 | 0.48
COC(=O)COCC(=O)N1CCC(C)C(OC)C1 (stereo not given) | -3 | 0.33
CC(N1C(=O)[C@H]2CCCCN2C1=O)C(C)(C)C (stereo not given in full) | -5 | 0.62
CCc1nccn1C[C@H]1CCCN1C(=O)Cc1c(Cl)cccc1Cl | 4 | -0.54
COCCN/C(Cc1ccc(Cl)cc1)=N\NC(=O)OC(C)(C)C | -3 | 0.33
Cc1ccc(S(=O)(=O)NCC(=O)NCCN2CCNC2=O)c(C)c1 | -11 | 2.03
CC1CC1C(=O)NC1CCCC(NC(=O)OC(C)(C)C)C1 (stereo not given) | -5 | 0.51
Cc1ncnc(N2CCC(N3CCNC(=O)CC3)CC2)c1C | 4 | -0.65
C[C@H](NCc1nc(N(C)C)no1)c1ccc(OCC2CC2)c(F)c1 | -5 | 0.61
Cc1cc(C(=O)N[C@H](c2ncccc2C)C2CC2)on1 | 13 | -1.86
COc1cc(C)cnc1C(=O)NCC1CCN(C2CC2)CC1 | -5 | 0.47
CCCCS(=O)(=O)N1CCc2nn(CCOC)c(=O)n2CC1 | -5 | 0.68
O=C(CC1CCCC1)NCCn1ccnc1-c1ccccn1 | 13 | -1.67
Cc1ccc(N(C)S(=O)(=O)c2c(C(=O)N3CCOCC3)c(C)n(C)c2C)cc1 | -15 | 2.94
Cc1cc(-c2cccc(C(=O)NCC3(N4CCCC4)CCCCC3)c2)ccn1 | -11 | 2.07
Nc1[nH]nc(-c2ccccn2)c1-c1ccc2c(c1)OCO2 | 26 | -2.97
Cc1ccc(NC(=O)C2(C)COC2)c(F)c1 | 5 | -0.75
CCn1ccc(C(=O)N2CCCN(Cc3c(C)noc3C)CC2)n1 | -3 | 0.35
Cc1c(CN2CCC(CCC(=O)N3CCOCC3)CC2)[nH]c2ccc(Cl)cc12 | 5 | -0.58
O=c1cnnc(NCc2ccccc2)n1Cc1ccccc1 | 5 | -0.65
C#CCN(CC#CC)CC(=O)N[C@](C)(C#N)C1CC1 | 2 | -0.23

Structure (SMILES) | % Inhibition [%] | Z score
O=S(=O)(c1cccc(NCc2ccccc2)c1)N1CCC(O)CC1 | 2 | -0.26
COc1cc(-c2cc(C(=O)N3CCNC(=O)C3)n[nH]2)cc(OC)c1OC | -6 | 0.68
CC1CCN(C[C@@H](O)Cn2nnc(-c3ccsc3)n2)CC1 | -11 | 2.04
COc1ccc(CN2CCn3nc(CNc4cnccn4)cc3C2)c(OC)c1 | -4 | 0.39
Cc1nn(C)c(N2CCN(c3ncc(Br)cn3)CC2)c1N | 5 | -0.95
O=C(c1cccnc1)N1CCC(NC(=O)N2CCCC2C2CCC2)C1 (stereo not given) | -11 | 1.03
CC(Cc1ccccc1Br)NC(=O)N1CCC[C@H]1CO (stereo not given in full) | -15 | 1.38
O=C(Cc1ccc(S(=O)(=O)Nc2ccc(Cl)cc2)s1)N1CCCC1 | -7 | 1.33
COc1ccc(CNC(=O)N2CCC[C@H](Oc3cnccn3)C2)cc1OC | -3 | 0.47
C[C@@H](CCn1cccn1)n1cnc2cnccc2c1=O | -10 | 1.95
CN(CCCc1cc(-c2ccccc2)n[nH]1)C(=O)C1CC1C(=O)O (stereo not given) | -21 | 3.04
Cc1cnn(C2CN(c3cc(C)nc4ncnn34)C2)c1 | 0 | -0.06
CN(C)CCOC1CCN(Cc2ccc3cc(Cl)ccc3n2)CC1 | -3 | 0.38
CCn1ncc2ccc(N[C@@H](C)c3cn(C4COC4)nn3)cc21 | -4 | 0.87
CC(C)(C)OC(=O)N1C[C@H]2CCN(C(=O)C3(C)CCC3)CC[C@H]2C1 | -9 | 1.81
N#Cc1ccc(CN2CCN3C(=O)NC[C@H]3C2)cc1 | -9 | 1.48
CCCCN1CCCC[C@H]1C(=O)NCc1ccc(N2CCCC2=O)cc1 | 4 | -0.51
O=C(Nc1nc2ccccc2s1)C12CCC(CC1)C2 | -34 | 4.02
Cc1cccc(Cn2c(C(=O)Nc3ccccc3)cc3cc(NC(=O)C4CCC4)ccc32)c1 | 13 | -2.41
CC(=O)N[C@H]1[C@H](c2ccccc2)N(CCC(C)C)CC[C@@]1(C)O | -3 | 0.39
COc1cc(C(=O)Nc2nnc(-c3cccc4ccccc34)[nH]2)on1 | 0 | 0.03
CN1CCN(C(=O)CN2C[C@@H](c3ccccc3Cl)OCC2(C)C)CC1 | -8 | 0.93
O=C(c1cc(C2CC2)oc1C1CC1)N1CCOc2ccc(O)cc2C1 | 3 | -0.52
COc1ccc(CCN2Cc3cc(NC(=O)OCc4ccccc4)ccc3O[C@@H](C)C2=O)cc1 | -4 | 0.46
O=S(=O)(c1ccccc1)n1nc(NCc2ccc(Br)cc2)nc1NCc1ccc(Br)cc1 | -1 | 0.11
CCO[C@@H](C)C(=O)Nc1ccnnc1C | 5 | -0.72
CCN(C[C@H]1CCN(c2cc(=O)n(C)c(=O)n2C)C1)CC(F)(F)F | -24 | 3.2

— ChEMBL document CHEMBL4888484, “Replenishing the malaria drug discovery pipeline: Screening and hit evaluation of the MMV Hit Generation Library 1 (HGL1) against asexual blood stage Plasmodium falciparum ,using a nano luciferase reporter read-out” (2022)
